From PubChem BioAssay AID588453 (National Center for Advancing Translational Sciences (NCATS), 2011)
Screen size: about 390,000 compounds; about 4,000 (1%) were called active. The shares of active, inactive and inconclusive entries below differ from those in the screen. Calls follow the shape of the dose curve; as a rule, active = well fitted inhibition curve with a large enough effect; inconclusive = small, poorly fitted or top-dose-only effect; inactive = no such curve, though single readings can be large or run the other way. A potency beside an inconclusive call is a rough fit, not a confirmed value.

Molecular target: Thioredoxin reductase 1, cytoplasmic (Rattus norvegicus) (UniProt O89049)
Chain of UniProt O89049 (O89049 whole entry, looked up): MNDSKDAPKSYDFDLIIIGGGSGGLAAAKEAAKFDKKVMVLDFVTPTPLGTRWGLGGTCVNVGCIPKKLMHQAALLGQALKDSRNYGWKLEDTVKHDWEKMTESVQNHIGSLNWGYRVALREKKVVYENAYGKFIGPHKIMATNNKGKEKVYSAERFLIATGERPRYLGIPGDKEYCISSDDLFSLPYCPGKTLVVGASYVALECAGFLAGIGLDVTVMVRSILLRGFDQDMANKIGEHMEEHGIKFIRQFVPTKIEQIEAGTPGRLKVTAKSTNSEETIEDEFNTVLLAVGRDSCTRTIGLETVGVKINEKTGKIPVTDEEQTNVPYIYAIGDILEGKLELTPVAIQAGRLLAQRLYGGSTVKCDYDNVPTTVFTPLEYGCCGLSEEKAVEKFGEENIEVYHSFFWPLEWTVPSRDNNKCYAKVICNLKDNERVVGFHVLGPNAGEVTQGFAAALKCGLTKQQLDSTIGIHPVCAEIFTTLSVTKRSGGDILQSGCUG
Assay: qHTS Assay for Inhibitors of Mammalian Selenoprotein Thioredoxin Reductase 1 (TrxR1): qHTS; also: nearly all actives have a fitted effect of over 65% in size
Details: recombinant rTrxR1, NADPH fluorescence consumption, selenite substrate; series mostly up to 114 µM
Method in brief: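 Rat TrxR1 (90 nM in the dispensed reagent) was pre-reduced with 400 uM NADPH for 5 min at room temperature, then incubated with compound for 15 min. After 400 uM selenite was added, NADPH fluorescence (Ex 340/Em 450 nm) was followed for 8 min.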
Potency is read from the fitted curve at half-maximal effect; tags tell the direction and shape of the fitted curve.

| Structure (SMILES) | Potency |
| --- | --- |
| CCOC(=O)c1c(C)oc2c1c1c(c3ccccc32)OCN(Cc2cccnc2)C1 | active: 1.41 µM |
| CC(C)NC(=O)CC1Nc2c3ccccc3nc(=S)n2C1=O (configuration not stated) | inactive |
| COc1ccc(OC)c(-c2cc(C(=O)NC(C)c3ccccc3)no2)c1 (configuration not stated) | inactive |
| CC(=O)OCC1=C(C(=O)OC(C)(C)C)N2C(=O)[C@@H](NC(=O)Cc3ccccc3)[C@H]2SC1 | active: 6.31 µM |
| O=C(Nc1nnc(-c2ccco2)s1)c1ccccc1 | inconclusive: 12.6 µM [inhibitor, full curve] |
| Cc1ccc(NS(=O)(=O)c2cc(N)ccc2Cl)c(C)c1 | inactive |
| CC(CNC(=O)Cn1ccc2cc(S(=O)(=O)N3CCCCCC3)ccc21)c1ccccc1 (configuration not stated) | inactive |
| COc1ccc(C2=NN(c3ccccc3)C(c3ccc(OC)c(OC)c3)C2)cc1 (configuration not stated) | inconclusive: 63.1 µM [inhibitor, single point] |
| O=C(C1CCN(c2nnc(-n3cccc3)s2)CC1)N1CCc2ccccc2C1 | inconclusive: 79.4 µM [inhibitor, single point] |
| Cc1cccc(-n2c(=O)c3c(c4cc(C)ccc4n3C)n(CC(=O)NCCC3=CCCCC3)c2=O)c1 | inactive |
| CCc1ccccc1NC(=O)c1ccc(-n2c(C)ccc2C)cc1 | inconclusive: 11.2 µM [inhibitor, full curve] |
| Nc1nc(NCc2cccc(Cl)c2)c2[nH]cnc2n1 | inactive |
| CN(CCc1cnn(C)c1)Cc1cn[nH]c1-c1ccc(-c2ccccc2)cc1 | inconclusive: 3.55 µM [inhibitor, single point] |
| O=C(NCc1ccc(-c2nc3ccccc3s2)cc1)c1ccco1 | inconclusive: 89.1 µM [inhibitor, single point] |
| CC(C)=C1C(=O)NN(c2ccc(C)c(Cl)c2)C1=O | inconclusive: 14.1 µM [inhibitor, full curve] |
| COCC(=O)OC1CCn2c1nc1c2C(=O)C(C)=C(NC(C)=O)C1=O (configuration not stated) | inconclusive: 44.7 µM [inhibitor, partial curve] |
| CCCCN(CC)CCNC(=O)c1cn(-c2ccc(Cl)cc2)c(=O)c2ccccc12 | inactive |
| CC(C)(CO)CNC(=O)CCc1nnc(Cc2ccc(-c3ccccc3)cc2)o1 | inactive |
| CCc1[nH]nc2c1C(Cc1ccccc1)C(C#N)=C(N)O2 (configuration not stated) | inconclusive: 79.4 µM [inhibitor, partial curve, poor fit] |
| O=C(Nc1nnc(Cc2ccccc2)s1)c1cccnc1 | inconclusive: 25.1 µM [inhibitor, single point] |
| CC(=O)c1cccc(NC(=O)Nc2ccccc2)c1 | inconclusive: 89.1 µM [inhibitor, partial curve, poor fit] |
| Cc1ccc(CNC(=O)Nc2ccc(OC(F)(F)F)cc2)n1C | inconclusive: 79.4 µM [inhibitor, single point] |
| Cc1ccc(C(=O)NNC(=S)NC(=O)COc2ccccc2)cc1 | active: 39.8 µM |

| Structure (SMILES) | Potency |
| --- | --- |
| CCO[C@@H]1OC(C(=O)NC2CC2)=C[C@H](c2ccc3c(c2)OCO3)[C@H]1CCCO | inconclusive: 39.8 µM [inhibitor, single point] |
| O=C(CSc1ncnc2sc3c(c12)CCCCC3)NCc1ccco1 | inconclusive: 28.2 µM [inhibitor, partial curve, poor fit] |
| CC(C)C[C@H](NC(=O)c1nc[nH]c1C(=O)N1CCC(C)CC1)C(=O)OC(C)(C)C | inactive |
| Cc1ccc(C)c(NC(=S)NNC(=S)Nc2ccc(C(C)C)cc2)c1 | inconclusive: 2.82 µM [inhibitor, partial curve, poor fit] |
| COCCCn1c(=O)c2ccccc2n2c(=S)[nH]nc12 | inconclusive: 56.2 µM [inhibitor, partial curve, poor fit] |
| CCN(C(=O)COC(=O)c1ccc2[nH]c3c(c2c1)CCCC3)C1CCS(=O)(=O)C1 (configuration not stated) | inconclusive: 31.6 µM [inhibitor, single point] |
| COC(=O)C(=C/C=C/c1ccco1)C(=O)OC | inconclusive: 31.6 µM [inhibitor, partial curve] |
| Oc1ccc(N=Nc2ccccc2-c2nn[nH]n2)c(O)c1 | inconclusive: 28.2 µM [inhibitor, partial curve] |
| COc1cccc(C(=O)SC2=NCCS2)c1 | inconclusive: 50.1 µM [inhibitor, single point] |
| CC(=O)/C(=N/Nc1ccccc1Cl)Sc1nnc(C(O)c2ccccc2)n1-c1ccccc1 (configuration not stated) | inconclusive: 70.8 µM [inhibitor, single point] |
| Cc1ccc(Nc2c(-c3cc(Br)ccc3F)nc3cc(C)ccn23)cc1 | inactive |
| O=C1N=C(c2ccccc2)S/C1=C\c1cccs1 | inconclusive: 12.6 µM [inhibitor, full curve, poor fit] |
| O=C1c2ccccc2C(=O)c2c1ccc1c(=O)n(C3CCCCC3)[nH]c21 | inactive |
| COc1ccc(NC(=O)/C(C#N)=C\C=C\c2ccco2)cc1 | inconclusive: 31.6 µM [inhibitor, partial curve, poor fit] |
| Cc1cccn2c(=O)c(C=O)c(Cl)nc12 | inconclusive: 17.8 µM [inhibitor, partial curve, poor fit] |
| CCOc1ccc(C(c2c(O)cc(C)n(CCOC)c2=O)N2CCN(c3ccccc3F)CC2)cc1 (configuration not stated) | inconclusive: 22.4 µM [inhibitor, single point] |
| Cc1ccccc1OCc1nnc(SCC(=O)N2c3ccccc3Sc3ccc(Cl)cc32)o1 | inconclusive: 28.2 µM [inhibitor, partial curve, poor fit] |
| Cc1ccc(-c2cn3cccnc3n2)cc1NC(=O)c1cccs1 | inconclusive: 100 µM [inhibitor, single point] |
| O=C(NNc1ccccc1)c1ccccc1 | inconclusive: 3.55 µM [inhibitor, partial curve, poor fit] |
| Cc1ccc(NC(=S)N/N=C2\CC3CC=CC23)c(C)c1 (configuration not stated) | inconclusive: 6.31 µM [inhibitor, full curve] |
| CCn1c2ccccc2c2cc(/C=C(/C#N)C(N)=S)ccc21 | inconclusive: 56.2 µM [inhibitor, partial curve] |
| Cc1cc(Cn2nnc3ccccc32)c(O)c(C(C)(C)C)c1 | inactive |
| O=C(O)CCc1ccc(-c2ccc(Br)cc2)o1 | active: 22.4 µM |

| Structure (SMILES) | Potency |
| --- | --- |
| COc1cccc(/C(O)=C2/C(=O)C(=O)N(CCN(C)C)C2c2ccc(Br)cc2)c1 (configuration not stated) | inconclusive: 17.8 µM [inhibitor, partial curve, poor fit] |
| Cc1ccc(-c2nc3ccccn3c2Nc2c(C)cccc2C)o1 | inconclusive: 12.6 µM [inhibitor, partial curve, poor fit] |
| Cc1c(Cl)c(-c2n[nH]c(=S)n2-c2ccccc2)nn1C | inconclusive: 8.91 µM [inhibitor, partial curve] |
| BrC(=C\c1ccccc1)/C=N/N1CCN(Cc2ccccc2)CC1 | inconclusive: 28.2 µM [inhibitor, single point] |
| CCOC(=O)c1c(C)[nH]c(C2=NNC(=NC(C)COC)SC2)c1C (configuration not stated) | inconclusive: 89.1 µM [inhibitor, single point] |
| O=C(CC1C(=O)NCCN1Cc1ccc(-c2ccccc2)cc1)NCC1CCOCC1 (configuration not stated) | inconclusive: 22.4 µM [inhibitor, partial curve, poor fit] |
| CC1=CC(=O)C=C(C)C1=NOS(=O)(=O)c1ccccc1 | inconclusive: 28.2 µM [inhibitor, single point] |
| CSc1nnc(N2C(=O)C(O)=C(C(=O)c3ccco3)C2c2ccccc2F)s1 (configuration not stated) | active: 7.94 µM |
| CN1C/C(=C\c2ccc(N3CCOCC3)cc2)C(=O)/C(=C/c2ccc(N3CCOCC3)cc2)C1 | inconclusive: 79.4 µM [inhibitor, partial curve] |
| CC(NC(=O)OCc1ccccc1)C(=O)Oc1cc2oc(=O)cc(-c3ccccc3)c2cc1Cl (configuration not stated) | inconclusive: 56.2 µM [inhibitor, single point] |
| Cc1ccc(Cl)cc1NC(=S)Nn1cnnc1 | inconclusive: 7.08 µM [inhibitor, partial curve, poor fit] |
| CSCCC(NC(C)=O)C(=O)Oc1ccc2c3c(c(=O)oc2c1)CCCC3 (configuration not stated) | active: 50.1 µM |
| CN(C)c1ccc(C=C2C(=O)OC(C)(C)OC2=O)cc1 | inactive |
| Cc1ccc(CNC(=O)[C@H]2C[C@@H]2[C@H](NP(=O)(c2ccccc2)c2ccccc2)c2ccccc2)o1 | inconclusive: 28.2 µM [inhibitor, single point] |
| CCc1ccc(NC(=O)C2=CC=CN3CCS(=O)(=O)N=C23)cc1 | inconclusive: 50.1 µM [inhibitor, partial curve, poor fit] |
| O=C1CSc2ccc(S(=O)(=O)CCC(=O)NC3CCCCC3)cc2N1 | active: 14.1 µM |
| Clc1ccc(C2=NNC(=NCc3ccc4c(c3)OCO4)SC2)cc1 | inconclusive: 44.7 µM [inhibitor, partial curve] |
| COC(=O)c1ccc(NCc2cc(O)ccc2O)cc1O | inconclusive: 79.4 µM [inhibitor, single point] |
| C=CCOc1ccc(/C(O)=C2/C(=O)C(=O)N(CCCN3CCOCC3)C2c2ccc(OC)cc2)cc1 (configuration not stated) | inconclusive: 25.1 µM [inhibitor, single point] |
| N#CC1=C(N)N(c2ccccc2)C2=C(C(=O)CCC2)C1c1cccs1 (configuration not stated) | inconclusive: 25.1 µM [inhibitor, partial curve] |
| CCOc1ccc(N2C(=O)CC(NCCNc3ccc([N+](=O)[O-])cn3)C2=O)cc1 (configuration not stated) | inconclusive: 50.1 µM [inhibitor, partial curve] |
